The chains are these.
T1: UNK ZnF1-3 (human, UniProt Q9C0B0 31-174)
T1 sequence: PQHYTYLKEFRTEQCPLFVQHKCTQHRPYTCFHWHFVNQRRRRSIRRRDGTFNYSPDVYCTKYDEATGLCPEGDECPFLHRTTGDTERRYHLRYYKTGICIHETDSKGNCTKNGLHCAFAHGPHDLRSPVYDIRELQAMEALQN

B1: chr13:14719544:14719545:+_ENSMUSG00000015671_ENSMUST00000170836|mus_mus|FALSE|FALSE (ssRNA)
RNA: GGGAGUUCUACAGUCCGACGAUCCAGAUAAUUGUGAGCCACCAUGUGGUUGCUGGGAUUUGAACUCAUGACCACUGAAAGAACAGUCAGAGCUCUUAACCGCUGAGCCAUCUCUCCAGCCCCAACUUUAAUUUUGCUGUUGUGCAACAGAGGAUUGAGCAUCA
B2: chr1:58468927:58468928:-_ENSMUSG00000026034_ENSMUST00000148330|mus_mus|mus_mus_mus_hu_False|8_48 (ssRNA)
RNA: GGGAGUUCUACAGUCCGACGAUCAAUUACUGAAAAAGAUGUUCAUUACCUUAGCUAUGUACUUAAUGAACCAAAUUACCCAAACAACAUAAAAUGUGCAAUAUAAAAAUGUUAAGAAUUUACAAAGAUUAAAAGCUUAACUUACAACAGAGGAUUGAGCAUCA
B3: chrX:71549400:71549401:+_ENSMUSG00000019087_ENSMUST00000019231|mus_hu|mus_mus_mus_hu_False|18_78 (ssRNA)
RNA: GGGAGUUCUACAGUCCGACGAUCGCAGUAGGAAGAGGGAAGCUCUUCAGUCCAGUGGUCACAAAACUGGGAAAGCAACAACACGGACACCGUCCCACCCUCAACCCCCCCACUGGCAUGUCACACAACAAUCUGGGUCAAAGACAACAGAGGAUUGAGCAUCA
B4: 41417256_41417376_2008_3pUTR_ENSMUSG00000025764_ENSMUST00000026865|mouse|control|control (ssRNA)
RNA: GGGAGUUCUACAGUCCGACGAUCCACACCAUUUUUCUGUUGUGCUGAUGAUAGGAGACGUGCUUCUGCAAAAGUCUUUUCUAAGCUCAGCAAGCUUUCUGAGACCUCCAGCCCCUCCCUUCUACCACAAAGACCUGGCUGCUUCAACAGAGGAUUGAGCAUCA
B5: 110073519_110076452_1125_3pUTR_ENSMUSG00000032481_ENSMUST00000088716|mouse|control|control (ssRNA)
RNA: GGGAGUUCUACAGUCCGACGAUCCCUUGGUAAGAUCUUCUUGCUCAUCUUCUUCCUUCUGACUUCUACGUUUCCCAUAAAGGCUAGCUUGUCCUUUCUUCCCGCUCUUCUUGCGGGACUCUGUGGCUGUGGGAGGAGGAGGAGCAACAGAGGAUUGAGCAUCA
B6: chr3:130683820:130683821:+_ENSG00000017260_ENST00000359644|hu_mus|FALSE|FALSE (ssRNA)
RNA: GGGAGUUCUACAGUCCGACGAUCGCCAUCGGAAGUGAGGAUGUGAGUAACAGUCAUCUCGUUCUUCGUCAGGGUUCCAGUUUUAUCUGAACAAAUCACAUUACAGCAGCCCAGUGUUUCCACAAUAGGCAAUUUCUUUACAAUCAACAGAGGAUUGAGCAUCA
B7: 136232880_136234153_406_CDS_ENSG00000148248_ENST00000371989|human|control|control (ssRNA)
RNA: GGGAGUUCUACAGUCCGACGAUCCCAUAAAAUGCUGUAGGCAAUCGUCUGCAGAGCUAUGAUUCCAAAGAGCCCGAAGCAGGCGUACUGCACGAAGUUCCUGCUCAACACCAGGACGCAGCCAGUCAGCUGUCCCAGCAAGUUCAACAGAGGAUUGAGCAUCA
B8: chr1:111986530:111986531:-_ENSG00000116455_ENST00000235090|hu_mus|motif|central (ssRNA)
RNA: GGGAGUUCUACAGUCCGACGAUCAUUGCAGGCCAUCUGUGAUGCCGGCUUGGGACAGCGGGUAUCCCAGAGCAAAAUUCGGCUGUCCUCACUACAUGAAAGAAACACAGAGUCUUUGUGGGGAGAGGCAGCAACACAGGUAACCAACAGAGGAUUGAGCAUCA
B9: chr6:31461392:31461393:+_ENSMUSG00000025609_ENSMUST00000026699|mus_hu|FALSE|FALSE (ssRNA)
RNA: GGGAGUUCUACAGUCCGACGAUCCAGACCUCUAGACUAGAAGCUUUGGAUAGCCAAGUCAUUUCAGCAUUAAAACAAAUCACAGGGAGAUAGAAGCCAGGGUCUAGAACCACAAAAGAAUAGCGUUAUUUGACUAAUAAGGAUCAACAGAGGAUUGAGCAUCA
B10: chr4:113189463:113189464:+_ENSG00000138660_ENST00000274000|hu_mus|FALSE|FALSE (ssRNA)
RNA: GGGAGUUCUACAGUCCGACGAUCCACAGGGUUCACAAACCCGGAGUACUCAGAGUUGCCGUUGUCGUCCAUCUCGGCACUGACAAAGUCGUUCUCCCACUCCAGCCCGUUGGAGUCAUCCGAGGCGGACGUGGGGUUGCUGCCCAACAGAGGAUUGAGCAUCA
B11: chr14:20710596:20710597:-_ENSMUSG00000043004_ENSMUST00000160013|mus_hu|motif|central (ssRNA)
RNA: GGGAGUUCUACAGUCCGACGAUCAUCCUGUCGAUAUUGGCUUCCAUCUUAAGCUGCUCUACCAGCUUCCUGGCUUGUGCGGUGCUGGCGGUGUUGUUGCUGGCCAUCGGAGUGCUGGAUAGAUCUUUCAGAAACACUCUUCAGCAACAGAGGAUUGAGCAUCA
B12: chr4:140556289:140556290:+_ENSMUSG00000036622_ENSMUST00000037055|mus_mus|mus_mus_mus_hu_False|28_78 (ssRNA)
RNA: GGGAGUUCUACAGUCCGACGAUCGAUGGAGCUCACCAGGCCCCCUUUUGCCGUGCAGAACCCUGUCCGGGUCACCACUGCCAGGACGUGCGGUCCCACAUAGGCCCGGGCCUGCAGGAUGAGGGUCCCGCAGAAGAGUGUGUGCAACAGAGGAUUGAGCAUCA
B13: chr10:33190432:33190433:-_ENSG00000150093_ENST00000302278|hu_mus|hu_hu_hu_mus_True|78_78 (ssRNA)
RNA: GGGAGUUCUACAGUCCGACGAUCUACAUUUUCCAAACCUGCAUGUGAAUAAAACCCUGGCAAUAUUGCCCCAAAACUACCCUACUGUGACUAAGAUGCUGCUGCUGUGAGCUUGGUGUUGCAAAAUCCGCCUGAGUAGGAUUCCAACAGAGGAUUGAGCAUCA
B14: chrX:98862621:98862622:+_ENSMUSG00000034160_ENSMUST00000044475|mus_hu|mus_mus_mus_hu_False|28_88 (ssRNA)
RNA: GGGAGUUCUACAGUCCGACGAUCCUGCAUCUCCUUUAGAGUGUUUCCCAUAUUGGAGUAGGCAUCAGCAAAGGUAGGACUGAUUCGAAUAGCCUCCUUAUAAUGCAUCAGUGCUUCCUGCAGUUUUCCCUGCUGCUGCAGUACCAACAGAGGAUUGAGCAUCA
B15: chr14:78183846:78183847:+_ENSG00000119705_ENST00000557342|hu_hu|hu_hu_hu_mus_False|68_108 (ssRNA)
RNA: GGGAGUUCUACAGUCCGACGAUCUCUGUCUCAAAAAUCUUCAUCAGAUGUUUGAGCUCCGUGCAAAAGUUUUGGCCUUUGAGCUUGAACGUGGAUCUAUGGGAGGGAAAGCACUGUCAGAAAAGGUAAUUUUUUUUUUAAAGACAACAGAGGAUUGAGCAUCA
B16: chr14:96997824:96997825:+_ENSG00000090060_ENST00000216277|hu_hu|motif|central (ssRNA)
RNA: GGGAGUUCUACAGUCCGACGAUCAUUUUUUAGCAGACUGUCAUCUCGUAGAUCCAAAUCUUCAGGAAUUGUCUGCAGUGCGGAUCUUGCAAACAAAAUAUCAAUCUCUAUCCCAUCAAAACAGAGUUUAAUAACUGGUACGAACAACAGAGGAUUGAGCAUCA
B17: chr4:144447494:144447495:+_ENSG00000153147_ENST00000283131|hu_mus|motif|central (ssRNA)
RNA: GGGAGUUCUACAGUCCGACGAUCCCAGUUGUGCAAUGUAGACUUGGGAACCAAAACCAUAUGAGGACCAGGAAUAUUUCGGUAGUGUUUCAUGUAUCCAAGAAGAGAAAUUGUUUGAAGUGUCUUUCCCAAACCCAUUUCAUCCAACAGAGGAUUGAGCAUCA
B18: chr17:66519878:66519879:+_ENSG00000108946_ENST00000358598|hu_hu|FALSE|FALSE (ssRNA)
RNA: GGGAGUUCUACAGUCCGACGAUCACUUCUCUCAUUAUCAUCAAGAUGUGAAAACAGCACAUUCUUUUCAAUGGCUUUGGCUAAAGCGGCCAUUGUCUUGUAAUCUUUUGGUAUAACCUUUCUAACAUAGGAUGCCGCAUCUUCCAACAGAGGAUUGAGCAUCA
B19: chr3:58389886:58389887:+_ENSMUSG00000075700_ENSMUST00000107924|mus_hu|motif|central (ssRNA)
RNA: GGGAGUUCUACAGUCCGACGAUCCUUGCCAACAAUUAUUAAGCCUAUUAAUACUAGUUUGAAGACUGACAGGAAAGAUGCGGUGUGUCUAUAUAUUGGUUGAGGGAGGUAAUUCUCUCCUUCAAUGCGGAUGUCUGGGUACCGCAACAGAGGAUUGAGCAUCA
B20: chr3:87781927:87781928:+_ENSMUSG00000004891_ENSMUST00000090973|mus_hu|motif|central (ssRNA)
RNA: GGGAGUUCUACAGUCCGACGAUCUCCCUUUCCCAGGUUCUCUUCCUCUUCCAGAUUCCUUUGACUUUCCUUGUCGGCCUCCUCUGGAGAUCUCAAAUUCUCCAGGUUCCAUGCUCCCAGAGAUCUCAAUGAUUCCUGAUUCUCCAACAGAGGAUUGAGCAUCA
B21: chr7:118222036:118222037:-_ENSMUSG00000005610_ENSMUST00000162415|mus_hu|motif|central (ssRNA)
RNA: GGGAGUUCUACAGUCCGACGAUCAUCAAAGUUUGGUGCAUCUUCUGCCAAUCGCAGACAUAGCUGAGCAUACAGUGAGCGGUACUUUGGCUCUUCUAGGGCUUUGUCCACAAUCAGCAGUAUGACCCCUUUAAGGAUGAGUUUCAACAGAGGAUUGAGCAUCA
B22: chr1:174042033:174042034:+_ENSMUSG00000026553_ENSMUST00000135192|mus_mus|FALSE|FALSE (ssRNA)
RNA: GGGAGUUCUACAGUCCGACGAUCAGGACGACACUCUCUGUCUAGGCAGUAUACAUUAUUGCCCUUCACUCUGGUGACAUAGAUGGGUAAAUCCAGAGUUCGGAUAAUCCCAUGGUCCCCAGUGGUGACAGCAUAUUUGAUGUGCAACAGAGGAUUGAGCAUCA

Our source for the binding signal values is PMC12136788.

The other results are listed elsewhere or left out.

The target of the experiment is T1, UNK ZnF1-3. Put plainly: nsRBNS (natural sequence RNA bind-n-seq); RBNS binding buffer (assumed for nsRBNS): 25 mM Tris pH 7.5, 150 mM KCl, 3 mM MgCl2, 0.01% Triton X-100, 500 ug/ml BSA, 20 U/ml SUPERase-In, 4 C; UNK is unkempt and MSI1 is Musashi-1; names of the RNAs are library labels; protein concentration not given here; high values mean tight binding.
For B1, the binding signal was 0.924 enrichment R.

The molecule B2 displayed a binding signal of 1.15 enrichment R.

Take B3: the binding signal was 1.93 enrichment R.

As for B4, the binding signal was found to be 0.772 enrichment R.

B5 came in with a binding signal of 0.511 enrichment R.

For B6, the binding signal was determined as 1.25 enrichment R.

Turning to B7, the binding signal worked out at 0.902 enrichment R.

B8: the binding signal came to 1.21 enrichment R.

Molecule B9 gave a binding signal of 1.95 enrichment R.

As for B10, the binding signal was found to be 0.53 enrichment R.

Take B11: the binding signal is 0.591 enrichment R.

For B12, the binding signal turned out to be 1.38 enrichment R.

The molecule B13 returned a binding signal of 1.2 enrichment R.

B14 came in with a binding signal of 0.923 enrichment R.

In turn, B15 displayed a binding signal of 1.98 enrichment R.

With B16, the binding signal amounted to 0.669 enrichment R.

Turning to B17, the binding signal came out at 1.56 enrichment R.

In turn, B18 yielded a binding signal of 0.866 enrichment R.

On to B19, for which the binding signal was determined as 1.07 enrichment R.

B20 returned a binding signal of 0.5 enrichment R.

For the molecule B21, the binding signal worked out at 0.648 enrichment R.

For B22, the binding signal came to 0.724 enrichment R.
